Measurements as given in PubChem BioAssay AID1508623 (National Center for Advancing Translational Sciences (NCATS), 2021).
Among all 48,000 compounds or so, about 450 (0.94%) were called active. Roughly 19% stayed inconclusive and do not appear here. Calls follow the shape of the dose curve; as a rule, active = well fitted inhibition curve with a large enough effect; inconclusive = small, poorly fitted or top-dose-only effect; inactive = no such curve, though single readings can be large or run the other way. Some of the results follow.

Experiment: Primary qHTS for Identification of Small Molecule Inhibitors of Huntingtin Promoter Activity; also: nearly all actives have a fitted effect of over 50% in size
Conditions: HEK293 HTT promoter firefly luciferase reporter (activity 0% = vehicle and -100% = no light), 24 h; series mostly up to 57.5 µM; activity change, negative = inhibition: at the top concentration
How it was run: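 HEK293 Fluc reporter, 2,500 cells/well, 24 h pre-culture; cpds up to 57.5 uM final, 24 h 37 degrees C; Dual-Glo, 10 min RT; normalized vehicle = 0%, zero RLU = -100%.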

Activity change, negative = inhibition, inactive:
Cc1ccc(-n2c(=O)c3c4c(sc3n(CC(=O)Nc3cccc(Cl)c3)c2=O)CCCCC4)cc1C -9.51%
COc1cc(C)nc(-n2nc(C)cc2OC)n1 6.77%
CS(=O)(=O)Nc1ccc([N+](=O)[O-])cc1Oc1ccccc1
Cc1cccc(C)c1OCC(=O)NC(Cc1c[nH]c2ccccc12)C(=O)O (centres undefined) -8.79%
Cc1ccc(S(=O)(=O)NCc2nc3nc(C)cc(C)n3n2)cc1 12.6%
Cc1ccc(C)c(CN2CCCN(CC(=O)Nc3ccc(C)c(C)c3)S2(=O)=O)c1 -21.1%
CCN(CC)CCCNC(=O)c1ccc(Cn2c(=O)[nH]c3cc(OC)c(OC)cc3c2=O)cc1 1.63%
CCOC(=O)c1c(S(=O)(=O)N2CCC(C(=O)N3CCN(c4ccccc4F)CC3)CC2)c(C)n(C)c1C -12.6%
Cn1cc(C(=O)NCc2ccccc2Cl)c(=O)c2cc(S(=O)(=O)N3CCCCCC3)ccc21 -0.408% [at 11.5 µM]
CCn1cc(C(=O)O)c(=O)c2cc(F)c(N3CCNC(C)C3)c(F)c21 (centres undefined)
CC(C)N(Cc1ccccc1)C(=O)Cn1ncc2c3ccccc3n(Cc3ccccc3)c2c1=O -20.2%
COc1ccc(CCNC(=O)c2cn(C)c3ccc(S(=O)(=O)N4CCOCC4)cc3c2=O)cc1OC 14.5%
CCOC(=O)c1ccc(NC(=O)CCCn2c(=O)c3cccn3c3cccnc32)cc1 -6.16%
Cc1nn(-c2ccc(Cl)cc2)c2nc(-c3cccnc3)cc(C(F)(F)F)c12 -7.01%
COc1ccc(NC(=O)C2CCN(S(=O)(=O)c3c(C)noc3/C=C/c3cccs3)CC2)cc1 -19.3%
COc1ccc(OC)c(S(=O)(=O)NCC(c2ccco2)S(=O)(=O)c2ccccc2)c1 (centres undefined) -15%
O=C(CSc1ccccc1)NCc1ccc2c(c1)CCN2C(=O)c1ccccc1 -1.22%
COc1cccc(-c2noc(CCCC(=O)NCc3ccco3)n2)c1 8.29%
CN(Cc1ccccc1)C(=O)CCS(=O)(=O)c1ccc2c(c1)oc(=O)n2C -7.74%
CCn1cc(S(=O)(=O)c2cccc(Cl)c2)c(=O)c2cc(F)c(N3CCN(C)CC3)cc21 -17.6%
COC(=O)c1ccccc1NC(=O)c1ccc(-c2nc(CSc3ccc(C)cc3)c(C)o2)cc1 -20.8%
COc1ccccc1N1CCN(Cc2nnc(-c3ccccc3C)o2)CC1 -8.88%
COCCCn1c(=O)c2sccc2n2c(CCCC(=O)Nc3cccc(C(F)(F)F)c3)nnc12 -15.3%
CCOC(=O)c1cccc(NC(=O)c2ccc3nc(CCc4ccccc4)oc3c2)c1 25.4%
O=C(NCCCc1nc2ccccc2n1Cc1cccc(Cl)c1)C1CCCCC1 -22.9%
CCCCOC(=O)c1ccc(NC(=O)c2csnn2)cc1 4.27%
CC1=C(C(=O)Nc2ccccc2)C(c2ccc[nH]2)n2ncnc2N1 (centres undefined) -3.12%
CCCOc1ccc(C(=O)Nc2ccc3oc(-c4ccc(N(C)C)cc4)nc3c2)cc1 -15%
Cc1c(Cl)cccc1NC(=O)Cn1nnc(-c2nc(-c3ccccc3)no2)c1N 8.08%
Cc1cccc(C)c1NC(=O)CSc1nc2ccccc2c2nc(CCc3c(C)n[nH]c3C)nn12 -3.72%
CCn1cc(C(=O)NCCc2ccc(C)cc2)c(=O)c2cc(S(=O)(=O)N3CCC(C)CC3)ccc21 -5.24%
CCCOc1ccc(OC(=O)c2cn(-c3ccc(OC)cc3)c(=O)c3ccccc23)cc1 -13.8%
COc1cccc(-c2nn3c(=O)cc(CN4CCN(C(=O)/C=C/c5ccccc5)CC4)nc3s2)c1 -6.35%
CCOc1ccccc1NC(=O)C1=C(C)Nc2ncnn2C1c1cccs1 (centres undefined) -5.99%
COc1cc(NC(=O)c2nc3ccccc3n(C)c2=O)cc(OC)c1OC 24.2%
Cc1ccc(CCNC(=O)CCS(=O)(=O)c2cc3c(cc2Cl)NC(=O)CO3)cc1 -1.12%
CC(C)NC(=O)CN1C(=O)c2cccnc2Sc2ccccc21 -7.74%
O=C(OCc1cc(=O)n2nc(C3CC3)sc2n1)c1ccccc1Cl 34.8%
COc1ccc(CNC(=O)C2=CC(c3cccc(OC)c3)=NS(=O)(=O)N2C)cc1 -19.3%
COC(=O)c1c(-c2ccc(Cl)cc2)noc1N1CCN(c2ccc(F)cc2)CC1 5.57%
Cc1ccc(-c2nc(-c3cc4cccc(OCc5ccccc5F)c4oc3=O)no2)cc1 -10.7%
COc1ccc(NC(=O)c2csnn2)cc1 61.1%
Cc1ccc(NC(=O)Cn2c(=O)n(Cc3ccc(C(=O)NCc4ccc5c(c4)OCO5)cc3)c(=O)c3ccccc32)cc1 -4.61%
CCOc1ccc(CNC(=O)CCS(=O)(=O)c2ccc3c(c2)oc(=O)n3C)cc1 -10.8%
COc1cc(C(=O)Nc2ccc(OCc3cc(=O)n4cc(C)sc4n3)cc2)cc(OC)c1OC -18.8%
O=C(NCCc1ccccc1)c1c[nH]c2ccc(S(=O)(=O)Nc3ccccc3F)cc2c1=O -20%
COc1ccc(NC(=O)Nc2nnc(N(C)C3CCCCC3)s2)c(OC)c1 -11.1%
CCOC(=O)c1sc(NC(=O)COc2ccccc2Cl)c(C(=O)OCC)c1C 10.6%
Cc1ccccc1NC(=O)CSc1nc2c(oc3ccccc32)c(=O)n1-c1ccccc1F -16.5%
CC(=O)N1CCN(c2ccc(OCc3nn(C)c(C)c3-c3cccc4c(CCCOc5cccc6ccccc56)c(C(=O)O)n(Cc5cccnc5)c34)cc2)CC1 16.6%
CC1=C(C(=O)OCC2CCCCC2)C(c2c(F)cccc2Cl)CC(=O)N1 (centres undefined) -31.7%
COc1cc(OC)c(NC(=O)Nc2ccccc2OCc2cc(=O)n3cc(C)ccc3n2)cc1Cl 14.7%
COc1ccc(CCNC(=O)CCc2c(C)nc3nc(C)nn3c2C)cc1OC 3.99%
COc1ccc(C)cc1NC(=O)CCS(=O)(=O)c1ccc2c(c1)CC(=O)N2C -13.9%
CCc1ccc(S(=O)(=O)c2nnn3c2nc(NC2CCCC2)c2sccc23)cc1 6.95%
COCCNC(=O)c1cc(Sc2ccc(F)cc2F)nc2ccccc12 -24.9%
COc1ccc(-n2ccn(Cc3ccc(C)cc3)c(=O)c2=O)cc1OC -12.2%
O=C(c1ccc2c(c1)N(Cc1ccc(F)cc1)C(=O)c1ccccc1S2(=O)=O)N1CCC(Cc2ccccc2)CC1 -12.7%
O=C(CSc1ccc2ccccc2n1)Nc1nsc(-c2ccc(Cl)cc2)n1 5.84%
Cc1cccc(-n2c(=O)c3c(c4cc(C)ccc4n3C)n(Cc3ccccc3F)c2=O)c1 -6.63%
COc1ccc(C2=Nc3ccc(C)cc3NC(c3ccc(Cl)cc3)=N2)cc1 7.77%
COc1ccc(Cl)cc1NC(=O)CCCn1c(C)c2cnn(-c3ccccc3)c(=O)c2c1C -11.2%
COc1ccc(-c2noc(N3CCC(C(=O)Nc4ccc(C)c(F)c4)CC3)n2)cc1OC -19.3%
COc1cccc(Cn2c(=O)n(-c3ccc(Br)cc3F)c(=O)c3sc4ccccc4c32)c1 -10%
CCOc1cccc2cc(-c3nc4sc5c(c4c(=O)[nH]3)CCC(C)C5)c(=O)oc12 (centres undefined) -7.43%
CCCCNC(=O)CSc1nc2ccccc2nc1Cc1ccc(Cl)cc1 3.9%
Cc1ccc(NC(=O)CC2Nc3cccc4cccc(c34)NC2=O)cc1 (centres undefined) -23%
COc1ccc(NC(=O)CCNS(=O)(=O)c2cccc3nsnc23)cc1OC -10.1%
CCCOc1cccc(C(=O)N(Cc2cc(OC)c(OC)c(OC)c2)C2CCS(=O)(=O)C2)c1 (centres undefined) -14.8%
Cc1ccc(OCCn2nnc3sc4c(c3c2=O)CCC(C(C)(C)C)C4)cc1 (centres undefined) 6.06%
CC(C)c1ccc(NC(=O)c2cccn2-c2nnc(N3CCCCC3)s2)cc1 -29.9%
CCOC(=O)c1cccc(NC(=O)CCCn2c(C)c3cnn(-c4ccccc4)c(=O)c3c2C)c1 -24.2%
Cc1cccc(-n2ncc(C(=O)N3CCC(C)CC3)c2C2CCN(C(=O)OC(C)(C)C)CC2)c1 3.6%
COc1cc(C2CC(=O)Nc3c2c(=O)n(C)c(=O)n3C)cc(OC)c1OC (centres undefined) -9.58%
CCCCn1c(CNC(=O)c2ccc(OC)cc2)nnc1SCC(=O)Nc1ccccc1 -13.5%
Cc1ccc(CNC(=O)CCC(=O)N2CC(C)Sc3ccccc32)cc1 (centres undefined) -13.1%
COc1ccc(-c2cc(C(C)=O)c(C)n2CCC(=O)NCc2ccc(F)cc2)cc1 -15.7%
Cc1ccc(NC(=O)c2cc3c(=O)[nH]c4ccccc4c3n2C)cc1F 0.232%
COc1ccc(CCNC(=O)NCc2noc3ccc(C)cc23)c(OC)c1 -22.3%
CC[C@]12CCCN3CCc4c(n(c5ccccc45)C(=O)C1)[C@@H]32 -15.7%
CCOC(=O)c1c(S(=O)(=O)NCC(=O)N2CCN(c3ccccc3OC)CC2)c(C)n(C)c1C -0.156%
Cc1cc(C)c(/C=C/c2onc(C)c2S(=O)(=O)N2CCC(C(=O)N3CCN(c4ccccc4)CC3)CC2)c(C)c1 -15.5%
COC(=O)c1ccc(Cn2c(SCc3cccc(C)c3)nc3ccncc32)cc1 -3.66%
CCOC(=O)c1sc2ncn(CC(=O)Nc3ccc(C)cc3C)c(=O)c2c1C -10.1%
CCn1cc(C(=O)O)c(=O)c2cc(F)c(N3CCN(C)CC3)cc21
COc1cccc(NC(=O)c2cn(C3CCCCC3)c(=O)c3c2c2ccccc2n3C)c1 -16.2%
CCCCNC(=O)C(CC)Sc1nnc(-c2ccc(OC)c(OC)c2)c(-c2ccc(OC)c(OC)c2)n1 (centres undefined) -12.1%
CC1CCc2nc3ncn(CC(=O)Nc4cccc(C#N)c4)c(=O)c3cc2C1 (centres undefined) -11.6%
COc1ccc(S(=O)(=O)N(CC(=O)N2CCC(C)CC2)c2ccc(C)cc2)cc1 -19.5%
COc1cc(Cl)c(C)cc1NC(=O)CN1c2ccccc2S(=O)(=O)c2ccccc21 -19.1%
CCc1ccccc1Nc1nn2c(=O)c3ccc(C(=O)Nc4cc(C)cc(C)c4)cc3nc2s1 -3.86%
Cc1nn(C)c2c1c(C(F)(F)F)cc(=O)n2CC(=O)NCc1ccccc1Cl 0.276%
CCOc1ccccc1NC(=O)C(C)Sc1nc2c(c(=O)[nH]1)CCCC2 (centres undefined) -2.94%
CCc1cccc(CC)c1NC1=NS(=O)(=O)c2ccccc21 -13.8%
